According to the supplement of paper PMC8728848:
The list shows a part of the results.

Experiments:
Experiment in all cases: glycan array binding signal (z-score within array); higher = stronger binding
Conditions in all cases: glycan notation: IUPAC condensed, linker removed
[1] = biological target: Gal(b1-4)GlcNAc(b1-3)Gal(b1-3)GlcNAc
Outline: (§1)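 Glycan array data came from 3228 arrays in the Consortium for Functional Glycomics database, and only arrays with an available protein sequence were kept. Glycan names were put into IUPAC-condensed notation, and columns mapping to the same glycan were averaged. The binding signal is a within-array Z-score, averaged across arrays of one protein sequence run at different concentrations or buffers and across linkers. A negative Z-score can be read as non-binding.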

[2] = biological target: Gal(b1-4)GlcNAc(b1-3)Gal(b1-4)Glc
Outline: as §1

[3] = biological target: Gal(b1-4)GlcNAc(b1-3)Gal(b1-4)GlcNAc
Outline: as §1

[4] = biological target: Gal(b1-4)GlcNAc(b1-3)Gal(b1-4)GlcNAc(b1-2)Man(a1-3)[Gal(b1-4)GlcNAc(b1-3)Gal(b1-4)GlcNAc(b1-2)Man(a1-6)]Man(b1-4)GlcNAc(b1-4)GlcNAc
Outline: as §1

[5] = biological target: Gal(b1-4)GlcNAc(b1-3)Gal(b1-4)GlcNAc(b1-2)Man(a1-3)[Gal(b1-4)GlcNAc(b1-3)Gal(b1-4)GlcNAc(b1-2)Man(a1-6)]Man(b1-4)GlcNAc(b1-4)[Fuc(a1-6)]GlcNAc
Outline: as §1

[6] = biological target: Gal(b1-4)GlcNAc(b1-3)Gal(b1-4)GlcNAc(b1-2)[Gal(b1-4)GlcNAc(b1-3)Gal(b1-4)GlcNAc(b1-6)]Man(a1-6)[Gal(b1-4)GlcNAc(b1-3)Gal(b1-4)GlcNAc(b1-2)Man(a1-3)]Man(b1-4)GlcNAc(b1-4)GlcNAc
Outline: as §1

[7] = biological target: Gal(b1-4)GlcNAc(b1-3)Gal(b1-4)GlcNAc(b1-2)[Gal(b1-4)GlcNAc(b1-3)Gal(b1-4)GlcNAc(b1-6)]Man(a1-6)[Gal(b1-4)GlcNAc(b1-3)Gal(b1-4)GlcNAc(b1-2)Man(a1-3)]Man(b1-4)GlcNAc(b1-4)[Fuc(a1-6)]GlcNAc
Outline: as §1

[8] = biological target: Gal(b1-4)GlcNAc(b1-3)Gal(b1-4)GlcNAc(b1-3)Gal(b1-4)GlcNAc
Outline: as §1

[9] = biological target: Gal(b1-4)GlcNAc(b1-3)Gal(b1-4)GlcNAc(b1-3)Gal(b1-4)GlcNAc(b1-2)Man(a1-3)[Gal(b1-4)GlcNAc(b1-3)Gal(b1-4)GlcNAc(b1-3)Gal(b1-4)GlcNAc(b1-2)Man(a1-6)]Man(b1-4)GlcNAc(b1-4)GlcNAc
Outline: as §1

[10] = biological target: Gal(b1-4)GlcNAc(b1-3)Gal(b1-4)GlcNAc(b1-3)Gal(b1-4)GlcNAc(b1-2)Man(a1-3)[Gal(b1-4)GlcNAc(b1-3)Gal(b1-4)GlcNAc(b1-3)Gal(b1-4)GlcNAc(b1-2)Man(a1-6)]Man(b1-4)GlcNAc(b1-4)[Fuc(a1-6)]GlcNAc
Outline: as §1

[11] = biological target: Gal(b1-4)GlcNAc(b1-3)Gal(b1-4)GlcNAc(b1-3)Gal(b1-4)GlcNAc(b1-2)[Gal(b1-4)GlcNAc(b1-3)Gal(b1-4)GlcNAc(b1-3)Gal(b1-4)GlcNAc(b1-6)]Man(a1-6)[Gal(b1-4)GlcNAc(b1-3)Gal(b1-4)GlcNAc(b1-3)Gal(b1-4)GlcNAc(b1-2)Man(a1-3)]Man(b1-4)GlcNAc(b1-4)[Fuc(a1-6)]GlcNAc
Outline: as §1

[12] = biological target: Gal(b1-4)GlcNAc(b1-3)Gal(b1-4)GlcNAc(b1-3)Gal(b1-4)GlcNAc(b1-3)Gal(b1-4)GlcNAc(b1-2)Man(a1-3)[Gal(b1-4)GlcNAc(b1-3)Gal(b1-4)GlcNAc(b1-3)Gal(b1-4)GlcNAc(b1-3)Gal(b1-4)GlcNAc(b1-2)Man(a1-6)]Man(b1-4)GlcNAc(b1-4)GlcNAc
Outline: as §1

[13] = biological target: Gal(b1-4)GlcNAc(b1-3)Gal(b1-4)GlcNAc(b1-3)Gal(b1-4)GlcNAc(b1-3)Gal(b1-4)GlcNAc(b1-2)Man(a1-3)[Gal(b1-4)GlcNAc(b1-3)Gal(b1-4)GlcNAc(b1-3)Gal(b1-4)GlcNAc(b1-3)Gal(b1-4)GlcNAc(b1-2)Man(a1-6)]Man(b1-4)GlcNAc(b1-4)[Fuc(a1-6)]GlcNAc
Outline: as §1

[14] = biological target: Gal(b1-4)GlcNAc(b1-3)Gal(b1-4)GlcNAc(b1-3)Gal(b1-4)GlcNAc(b1-3)Gal(b1-4)GlcNAc(b1-2)[Gal(b1-4)GlcNAc(b1-3)Gal(b1-4)GlcNAc(b1-3)Gal(b1-4)GlcNAc(b1-3)Gal(b1-4)GlcNAc(b1-6)]Man(a1-6)[Gal(b1-4)GlcNAc(b1-3)Gal(b1-4)GlcNAc(b1-3)Gal(b1-4)GlcNAc(b1-3)Gal(b1-4)GlcNAc(b1-2)Man(a1-3)]Man(b1-4)GlcNAc(b1-4)[Fuc(a1-6)]GlcNAc
Outline: as §1

[15] = biological target: Gal(b1-4)GlcNAc(b1-3)Gal(b1-4)GlcNAc(b1-3)Gal(b1-4)GlcNAc(b1-3)Gal(b1-4)GlcNAc(b1-3)Gal(b1-4)GlcNAc(b1-2)Man(a1-3)[Gal(b1-4)GlcNAc(b1-3)Gal(b1-4)GlcNAc(b1-3)Gal(b1-4)GlcNAc(b1-3)Gal(b1-4)GlcNAc(b1-3)Gal(b1-4)GlcNAc(b1-2)Man(a1-6)]Man(b1-4)GlcNAc(b1-4)GlcNAc
Outline: as §1

[16] = biological target: Gal(b1-4)GlcNAc(b1-3)Gal(b1-4)GlcNAc(b1-3)Gal(b1-4)GlcNAc(b1-3)Gal(b1-4)GlcNAc(b1-3)Gal(b1-4)GlcNAc(b1-2)Man(a1-3)[Gal(b1-4)GlcNAc(b1-3)Gal(b1-4)GlcNAc(b1-3)Gal(b1-4)GlcNAc(b1-3)Gal(b1-4)GlcNAc(b1-3)Gal(b1-4)GlcNAc(b1-2)Man(a1-6)]Man(b1-4)GlcNAc(b1-4)[Fuc(a1-6)]GlcNAc
Outline: as §1

[17] = biological target: Gal(b1-4)GlcNAc(b1-3)Gal(b1-4)GlcNAc(b1-3)Gal(b1-4)GlcNAc(b1-3)Gal(b1-4)GlcNAc(b1-3)Gal(b1-4)GlcNAc(b1-2)[Gal(b1-4)GlcNAc(b1-3)Gal(b1-4)GlcNAc(b1-3)Gal(b1-4)GlcNAc(b1-3)Gal(b1-4)GlcNAc(b1-3)Gal(b1-4)GlcNAc(b1-6)]Man(a1-6)[Gal(b1-4)GlcNAc(b1-3)Gal(b1-4)GlcNAc(b1-3)Gal(b1-4)GlcNAc(b1-3)Gal(b1-4)GlcNAc(b1-3)Gal(b1-4)GlcNAc(b1-2)Man(a1-3)]Man(b1-4)GlcNAc(b1-4)[Fuc(a1-6)]GlcNAc
Outline: as §1

[18] = biological target: Gal(b1-4)GlcNAc(b1-3)Gal(b1-4)GlcNAc(b1-3)Gal(b1-4)GlcNAc(b1-3)Gal(b1-4)GlcNAc(b1-3)Gal(b1-4)GlcNAc(b1-3)Gal(b1-4)GlcNAc(b1-2)Man(a1-3)[Gal(b1-4)GlcNAc(b1-3)Gal(b1-4)GlcNAc(b1-3)Gal(b1-4)GlcNAc(b1-3)Gal(b1-4)GlcNAc(b1-3)Gal(b1-4)GlcNAc(b1-3)Gal(b1-4)GlcNAc(b1-2)Man(a1-6)]Man(b1-4)GlcNAc(b1-4)GlcNAc
Outline: as §1

[19] = biological target: Gal(b1-4)GlcNAc(b1-3)Gal(b1-4)GlcNAc(b1-3)GalNAc
Outline: as §1

B1: DC-ASGPR Long (Homo sapiens) (protein)
chain: MTRTYENFQYLENKVKVQGFKNGPLPLQSLLQRLRSGPCHLLLSLGLGLLLLVIICVVGFQNSKFQRDLVTLRTDFSNFTSNTVAEIQALTSQGSSLEETIASLKAEVEGFKQERQAGVSELQEHTTQKAHLGHCPHCPSVCVPVHSEMLLRVQQLVQDLKKLTCQVATLNNNASTEGTCCPVNWVEHQDSCYWFSHSGMSWAEAEKYCQLKNAHLVVINSREEQNFVQKYLGSAYTWMGLSDPEGAWKWVDGTDYATGFQNWKPGQPDDWQGHGLGGGEDCAHFHPDGGWNDDVCQRPYHWVCEAGLGQTSQESH
glycan array binding signal (z-score) [1]: -0.172 | glycan array binding signal (z-score) [2]: -0.074 | glycan array binding signal (z-score) [3]: -0.223 | glycan array binding signal (z-score) [4]: 0.7 | glycan array binding signal (z-score) [5]: -0.788 | glycan array binding signal (z-score) [6]: -0.054 | glycan array binding signal (z-score) [7]: -0.361 | glycan array binding signal (z-score) [8]: -0.307 | glycan array binding signal (z-score) [9]: 0.095 | glycan array binding signal (z-score) [10]: -0.492 | glycan array binding signal (z-score) [11]: 0.493 | glycan array binding signal (z-score) [12]: 0.263 | glycan array binding signal (z-score) [13]: -0.462 | glycan array binding signal (z-score) [14]: 0.646 | glycan array binding signal (z-score) [15]: 1 | glycan array binding signal (z-score) [16]: -0.525 | glycan array binding signal (z-score) [17]: 0.862 | glycan array binding signal (z-score) [18]: -0.269 | glycan array binding signal (z-score) [19]: -0.133
